“And” between values parts separate entries of the source, which are not always exact repeats. Identical values can stand only once. The inconclusive results got no clear call from the source; some entries with a clear call stand among them for comparison. A potency beside an inconclusive call is a rough fit, not a confirmed value. The source made the active and inactive calls. Calls come from the whole dose curve; as a rule, active = well fitted activation curve with a large enough effect in the signal ratio in the repeat runs (not every such curve was filed as active); inconclusive = weak or mixed curves, or effect the other way; inactive = no such curve, though single readings can be large or run the other way; the % refers to the signal ratio.
target: Peroxisome proliferator-activated receptor gamma (Homo sapiens) (UniProt P37231); experiment: qHTS assay to identify small molecule agonists of the peroxisome proliferator-activated receptor gamma (PPARg) signaling pathway (AID 743094); conditions: HEK293H PPARg-UAS-bla, beta-lactamase FRET ratio, 17 h; activation: at 57 µM (top of the series) unless noted
Source text: U.S. Tox21 Program National Center for Advancing Translational Sciences [NCATS] NIH Chemical Genomics Center [NCGC] U.S. Environmental Protection Agency [EPA] National Institutes of Environmental Health Sciences [NIEHS] National Toxicology Program [NTP] U.S. Food and Drug Administration [FDA] Tox21 Assay Overview: The peroxisome proliferator-activated receptors (PPARs) are lipid-activated transcription factors of the nuclear receptor superfamily with three distinct subtypes namely PPAR alpha, PPAR delta (also called PPAR beta) and PPAR gamma (PPARg). All these subtypes heterodimerize with Retinoid X receptor (RXR) and these heterodimers regulate transcription of various genes. PPAR-gamma receptor (glitazone receptor) is involved in the regulation of glucose and lipid metabolism. To identify the compounds that activate PPAR-gamma signaling, GeneBLAzer PPAR gamma UAS-bla HEK293H cell line (Invitrogen, Carlsbad, CA, USA) containing a beta-lactamase reporter gene under control of the control of an upstream activator sequence (UAS) stably integrated into HEK293H cells was used to screen Tox21 compound library.
Tox21 Assay Protocol Summary: PPARg-bla cells were dispensed at 3000 cells/6uL/well in 1536-well black wall/clear bottom plates using a Multidrop Combi (Thermo Fisher Scientific, Waltham, MA) dispenser. After the assay plates were incubated at 37C and 5% CO2 for 5 h, 23 nL of compounds dissolved in DMSO, positive controls or DMSO only was transferred to the assay plate by a Pintool station (Kalypsys, San Diego, CA). The assay plates were incubated at 37C for 17 h. After 1 uL of LiveBLAzerTM B/G FRET substrate was added using a Bioraptr Flying Reagent Dispenser (FRD) workstation (Beckman Coulter, Indianapolis, IN, USA), the plates were incubated at room temperature for 1 h, and fluorescence intensity was measured by an Envision plate reader (PerkinElmer, Shelton, CT).
% is set by controls: 0 for no effect and ±100 for the full control effect; potency is the fitted concentration of half-maximal effect; tags give direction and shape of the fitted curve or compound fluorescence and quenching.

Chain of UniProt P37231 (P37231 whole entry, looked up): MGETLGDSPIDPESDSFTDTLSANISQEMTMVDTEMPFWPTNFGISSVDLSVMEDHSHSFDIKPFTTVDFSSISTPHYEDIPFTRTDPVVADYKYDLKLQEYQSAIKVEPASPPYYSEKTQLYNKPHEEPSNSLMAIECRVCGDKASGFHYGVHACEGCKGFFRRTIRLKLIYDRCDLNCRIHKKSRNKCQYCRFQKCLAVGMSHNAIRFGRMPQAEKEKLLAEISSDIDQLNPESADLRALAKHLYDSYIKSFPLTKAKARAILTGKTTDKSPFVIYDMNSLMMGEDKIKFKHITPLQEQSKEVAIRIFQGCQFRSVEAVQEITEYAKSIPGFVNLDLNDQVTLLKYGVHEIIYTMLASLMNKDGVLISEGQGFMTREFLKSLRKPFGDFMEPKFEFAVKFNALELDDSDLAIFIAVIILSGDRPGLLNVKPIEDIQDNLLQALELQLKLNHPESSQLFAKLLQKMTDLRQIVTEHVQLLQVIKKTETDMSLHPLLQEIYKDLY

Row | SMILES | Potency | activation
1 | CCCOc1sc(C(=O)N2CCC(c3cc(CN)ccc3F)CC2)c(C)c1Br | inconclusive: 56.5 µM | –
2 | COc1ccc(CN2CCN(C(c3ccc(F)cc3)c3ccc(F)cc3)CC2)c(OC)c1OC | inconclusive: 15.1 µM [rising, partial curve, poor fit] | –
3 | CC1=C(/C=C/C(C)=C/C=C/C(C)=C/C=O)C(C)(C)CCC1 | inconclusive: 54.6 µM [cytotoxic, single point] | –
4 | CC(C)(c1ccc(O)cc1)c1ccc(O)cc1 | inconclusive: 25 µM | inconclusive: -19.6%
5 | CCCSS/C(CCO)=C(\C)N(C=O)Cc1cnc(C)nc1N | inconclusive: 21.3 µM [activator, partial curve, poor fit] | –
6 | COc1cc([C@@H]2c3cc4c(cc3[C@@H](O[C@@H]3O[C@@H]5CO[C@@H](C)O[C@H]5[C@H](O)[C@H]3O)[C@H]3COC(=O)[C@H]23)OCO4)cc(OC)c1O | inconclusive: 30.6 µM [rising, partial curve, poor fit] | inconclusive: -10%
7 | CC(C)(C)CC(C)(C)c1ccc(OCCOCC[N+](C)(C)Cc2ccccc2)cc1 | inconclusive: 61.6 µM [cytotoxic, single point] | –
8 | Cc1ccc(C(C)(C)C)c(O)c1 | – | inconclusive: 8.33%
9 | Cc1ccc(O)c(C(C)(C)C)c1 | inconclusive: 48.9 µM [partial curve] | –
10 | CC(=O)OC/C=C(C)/C=C/C=C(C)/C=C/C1=C(C)CCCC1(C)C | – | inconclusive: -11.2%
11 | CC=O | inconclusive: 25.7 µM | –
12 | Oc1ccc(O)cc1 | inconclusive: 26.8 µM [activator, partial curve, poor fit] and inconclusive: 19.4 µM [activator] | inconclusive: 5.85%
13 | CCCCCCCO | inactive | –
14 | CC(C)c1ccc2sc3ccccc3c(=O)c2c1 | – | inconclusive: 4.11%
15 | CCCCCCCCCCOCC(O)CN (stereo not given) | inconclusive: 26.8 µM [cytotoxic, single point] | –
16 | CCCCc1oc2ccc(NS(C)(=O)=O)cc2c1C(=O)c1ccc(OCCCN(CCCC)CCCC)cc1 | inconclusive: 10.7 µM [inhibitor, partial curve, poor fit] | –
17 | Cc1cc(Nc2ccc(O)cc2)ccc1N | inactive | –
18 | c1ccc2c(c1)-c1cccc3c1c-2cc1ccccc13 | inconclusive: 47.9 µM [fluorescent, partial curve] and inconclusive: 54.9 µM [fluorescent] | –

Row | SMILES | Potency | activation
19 | CCCCCCCC/C=C\CCCCCCCCOCCO | inconclusive: 10.1 µM [rising, partial curve] | –
20 | CCCCCCCCCCCCCOP(=O)(O)O | – | inconclusive: -15.7%
21 | CC(C)(C)c1cc(/C=C2\SC(=N)NC2=O)cc(C(C)(C)C)c1O | inconclusive: 61.6 µM | –
22 | CS(=O)(=O)CCNCc1ccc(-c2ccc3ncnc(Nc4ccc(OCc5cccc(F)c5)c(Cl)c4)c3c2)o1 | inconclusive: 26.8 µM [activator] | –
23 | CC(=O)N1CCN(c2ccc(OC[C@H]3CO[C@](Cn4ccnc4)(c4ccc(Cl)cc4Cl)O3)cc2)CC1 | inconclusive: 54.9 µM [falling, single point] | inconclusive: 1.94%
24 | COc1cc(/C=C/C(=O)CC(=O)/C=C/c2ccc(O)c(OC)c2)ccc1O | inconclusive: 26.8 µM [fluorescent, single point] and inconclusive: 26.8 µM [activator] and inconclusive: 34.9 µM [fluorescent, partial curve] | –
25 | CCCCC(CC)COC(=O)CC(C(=O)OCC(CC)CCCC)S(=O)(=O)O (stereo not given) | – | inconclusive: -11.2%
26 | Nc1cc(Cl)c(-c2cc(Cl)c(N)cc2Cl)cc1Cl | inconclusive: 24.5 µM [fluorescent, single point] | inconclusive: 12.1%
27 | CC[C@]12CCCN3CCc4c(n(c5ccccc45)[C@@](O)(C(=O)OC)C1)[C@@H]32 | – | inconclusive: -11.8%
28 | CCCCCCCCCCCC(=O)NCCCN(C)C | inconclusive: 61.6 µM [single point] | –
29 | NC1(c2ccc(-c3nc4ccn5c(=O)[nH]nc5c4cc3-c3ccccc3)cc2)CCC1 | – | inconclusive: 9.74%
30 | CCc1cc(Cc2cc(CC)c(N)c(CC)c2)cc(CC)c1N | – | inconclusive: -6.71%
31 | CC[C@H]1O[C@]2(CC[C@@H]1C)C[C@@H]1C[C@@H](C/C=C(\C)C[C@@H](C)/C=C/C=C3\CO[C@@H]4[C@H](O)C(C)=C[C@@H](C(=O)O1)[C@]34O)O2 | inconclusive: 54.5 µM [single point] | –
32 | CC1=C(C(=O)OC(C)C)C(c2cccc([N+](=O)[O-])c2)C(C(=O)OC2CN(C(c3ccccc3)c3ccccc3)C2)=C(N)N1 (stereo not given) | inconclusive: 10.7 µM [partial curve, poor fit] | –
33 | CCOC(=O)C1=C(C)NC(C)=C(C(=O)OCC)C1c1ccccc1/C=C/C(=O)OC(C)(C)C | active: 9.52 µM | –
34 | CN1CCN(CCCN2c3ccccc3Sc3ccc(Cl)cc32)CC1 | – | inconclusive: 0.0145%
35 | N#CSCSc1nc2ccccc2s1 | inconclusive: 61.6 µM [fluorescent, single point] | –
